# In PubChem BioAssay (NCATS):
# The inconclusive results got no clear call from the source; some entries with a clear call stand among them for comparison. Potencies of inconclusive entries are left out as doubtful fits. Activity calls are given as the source filed them. Calls follow the shape of the dose curve; as a rule, active = well fitted curve in the direction sought with a large enough effect; inconclusive = small, poorly fitted or top-dose-only effect, or another doubt; inactive = no such curve, though single readings can be large; an effect the other way counts as inactive or inconclusive.
# What was measured:
# [1] = molecular target: ATPase family AAA domain-containing protein 5 (Homo sapiens) (UniProt Q96QE3); assay: HTS assay for small molecules that inhibit ELG1-dependent DNA repair in human embryonic kidney (HEK293T) cells expressing luciferase-tagged ELG1: Hit Confirmation (AID 624248); settings: HEK293T ELG1-luciferase levels, luminescence, cells co-treated with 5-fluorouridine; series mostly up to 46.1 µM; also: nearly all actives have a fitted effect of over 55% in size
# Method in brief: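 Suppression of ELG1-luciferase signal was read by ONE-Glo luminescence in HEK293T reporter cells after 16 h at 37 C co-treatment with compound and 5-fluorouridine as DNA-damaging agent.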
# [2] = qHTS screen for small molecules that inhibit ELG1-dependent DNA repair: Hit Confirmation with 5FU Viability (AID 624250); settings: cell viability with 5-FU; series mostly up to 46.1 µM;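 also: viability measured 16 h after compound addition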
# Method in brief: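 Steps: seed ELG1-luciferase HEK293T cells; after roughly 5 h, pin in compounds and dispense 5-fluorouridine to 10 µM final; incubate 16 h; measure viability with CellTiter-Glo.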
# [3] = qHTS screen for small molecules that inhibit ELG1-dependent DNA repair: Hit Confirmation with MMS Viability (AID 624251); settings: Cell viability with MMS; series mostly up to 46.1 µM;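 also: viability read 16 h after compound addition; nearly all actives have a fitted effect of over 60% in size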
# Method in brief: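 Under 10 µM MMS, compounds were tested on ELG1-luc HEK293T cells seeded at 2,000 cells/well; survival was determined by CellTiter-Glo luminescence 16 h post-addition.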
# Potency is read from the fitted curve at half-maximal effect; tags tell the direction and shape of the fitted curve.
# Sequence of UniProt Q96QE3 (Q96QE3 whole entry, looked up, the tested form may be a part): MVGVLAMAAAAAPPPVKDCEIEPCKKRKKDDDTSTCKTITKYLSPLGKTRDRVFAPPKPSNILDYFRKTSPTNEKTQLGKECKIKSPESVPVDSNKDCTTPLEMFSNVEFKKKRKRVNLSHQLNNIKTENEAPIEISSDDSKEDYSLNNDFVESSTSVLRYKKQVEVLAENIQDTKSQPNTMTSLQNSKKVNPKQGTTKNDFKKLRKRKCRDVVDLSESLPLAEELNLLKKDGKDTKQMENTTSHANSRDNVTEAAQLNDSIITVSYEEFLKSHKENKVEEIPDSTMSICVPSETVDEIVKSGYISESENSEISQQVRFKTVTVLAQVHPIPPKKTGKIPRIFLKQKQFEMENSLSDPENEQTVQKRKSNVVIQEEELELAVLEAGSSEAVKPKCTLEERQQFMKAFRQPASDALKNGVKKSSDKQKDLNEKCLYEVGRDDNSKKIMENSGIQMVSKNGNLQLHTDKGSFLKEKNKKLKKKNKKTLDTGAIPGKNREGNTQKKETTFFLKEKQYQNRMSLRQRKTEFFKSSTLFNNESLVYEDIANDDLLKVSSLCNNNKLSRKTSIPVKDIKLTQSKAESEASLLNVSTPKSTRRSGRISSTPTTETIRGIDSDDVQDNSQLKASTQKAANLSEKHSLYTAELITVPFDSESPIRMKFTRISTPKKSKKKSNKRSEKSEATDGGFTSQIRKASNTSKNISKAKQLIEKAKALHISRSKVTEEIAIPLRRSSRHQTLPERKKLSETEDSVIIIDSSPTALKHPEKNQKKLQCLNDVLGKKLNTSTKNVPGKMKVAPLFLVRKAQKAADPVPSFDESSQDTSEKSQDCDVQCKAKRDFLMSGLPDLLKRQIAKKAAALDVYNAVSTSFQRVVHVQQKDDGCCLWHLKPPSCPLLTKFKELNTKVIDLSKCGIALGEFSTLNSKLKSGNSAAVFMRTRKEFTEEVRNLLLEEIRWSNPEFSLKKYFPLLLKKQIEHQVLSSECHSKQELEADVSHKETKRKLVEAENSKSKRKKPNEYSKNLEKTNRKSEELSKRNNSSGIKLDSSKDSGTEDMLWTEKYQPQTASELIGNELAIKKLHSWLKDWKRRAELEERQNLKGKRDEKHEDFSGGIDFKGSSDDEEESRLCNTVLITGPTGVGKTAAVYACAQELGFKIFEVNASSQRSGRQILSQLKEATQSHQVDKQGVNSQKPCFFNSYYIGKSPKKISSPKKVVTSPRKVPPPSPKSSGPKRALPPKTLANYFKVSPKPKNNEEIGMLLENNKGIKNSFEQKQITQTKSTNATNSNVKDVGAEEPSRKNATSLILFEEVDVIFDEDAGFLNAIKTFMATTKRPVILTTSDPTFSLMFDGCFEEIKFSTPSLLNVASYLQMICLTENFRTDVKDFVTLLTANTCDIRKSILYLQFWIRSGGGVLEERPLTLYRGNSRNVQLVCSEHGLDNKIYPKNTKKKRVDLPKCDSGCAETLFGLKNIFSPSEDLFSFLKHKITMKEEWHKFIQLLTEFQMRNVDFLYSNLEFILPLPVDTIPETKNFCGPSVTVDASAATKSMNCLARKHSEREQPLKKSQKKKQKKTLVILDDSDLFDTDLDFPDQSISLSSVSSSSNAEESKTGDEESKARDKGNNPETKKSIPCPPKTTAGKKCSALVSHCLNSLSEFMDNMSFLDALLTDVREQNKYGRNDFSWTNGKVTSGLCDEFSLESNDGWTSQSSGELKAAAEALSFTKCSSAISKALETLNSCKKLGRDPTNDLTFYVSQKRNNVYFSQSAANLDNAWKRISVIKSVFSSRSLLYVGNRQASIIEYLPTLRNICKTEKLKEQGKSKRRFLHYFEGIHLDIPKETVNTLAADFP
Compound,Potency [1],Potency [2],Potency [3]
CCCCCCC1(C)NC(=S)N(c2ccccc2)N1 (stereo not given),inactive,inactive,
O=C(Nc1cccc(NC(=O)c2cccc([N+](=O)[O-])c2)n1)c1cccc([N+](=O)[O-])c1,"inconclusive [inhibitor, partial curve]",,"inconclusive [cytotoxic, partial curve]"
COc1ccc(Cc2nc3ccc(C(=O)N(C)Cc4nccs4)cc3o2)cc1OC,"inconclusive [inhibitor, partial curve]",,active: 7.91 µM
CCN(CC)S(=O)(=O)c1ccc(NC(=O)c2ccc(N(C)S(C)(=O)=O)cc2)cc1,"inconclusive [inhibitor, partial curve]",inactive,active: 1.12 µM
COc1cc(/C=C/c2nc(N)nc(-c3ccccc3O)n2)cc(OC)c1OC,active: 2.23 µM,inactive,"inconclusive [cytotoxic, partial curve]"
O=C(CNC(=O)c1cccc(F)c1)N/N=C/c1ccc([N+](=O)[O-])s1,"inconclusive [inhibitor, partial curve]",,active: 14.1 µM
COc1ccc(NC(=O)/C(C#N)=C/c2cc(C)n(-c3ccc(N4CCOCC4)c([N+](=O)[O-])c3)c2C)cc1,active: 4.45 µM,,"inconclusive [cytotoxic, partial curve, poor fit]"
O=S(=O)(c1cccs1)N1CCN(c2ccc(O)cc2)CC1,inactive,inactive,"inconclusive [cytotoxic, single point]"
Fc1ccccc1CNc1ncnc2sccc12,"inconclusive [inhibitor, partial curve, poor fit]",inactive,active: 3.15 µM
Cc1nc(NC(=O)c2c(-c3ccccc3Cl)noc2C)sc1C,"inconclusive [inhibitor, partial curve]","inconclusive [rising, full curve, poor fit]",inactive
CCCCn1c(SCC(=O)Nc2nnc(CC)s2)nc2c1c(=O)n(C)c(=O)n2C,"inconclusive [inhibitor, partial curve]",,"inconclusive [cytotoxic, partial curve]"
CCN1CCN(S(=O)(=O)c2cc(OCC(=O)NC3CCCCC3)c(C)cc2Cl)CC1,inactive,,active: 2.5 µM
O=C(/C=C1\NC2(CCCC2)Cc2ccccc21)C(=O)N/N=C/c1ccccc1O,"inconclusive [inhibitor, full curve]",inactive,"inconclusive [cytotoxic, partial curve, poor fit]"
CC(=O)NC(CC(=O)Nc1ccc(S(=O)(=O)Nc2nccs2)cc1)c1ccccc1 (stereo not given),"inconclusive [inhibitor, full curve]",inactive,inactive
COc1cc(C(=O)NC(=S)Nc2ccccc2N2CCCC2)cc(OC)c1OC,active: 3.97 µM,"inconclusive [rising, full curve]",inactive
COc1ccc(C(=O)Nc2cc3c(cc2N2CCCCC2)n(C)c(=O)n3C)cc1OC,"inconclusive [inhibitor, full curve, poor fit]","inconclusive [rising, full curve, poor fit]",inactive
Cc1ccc(-n2nc3c(=O)n(CC(=O)NCCc4ccccc4C)nc(C)c3c2C)cc1,"inconclusive [inhibitor, partial curve]",inactive,active: 9.96 µM
Cc1ccc(-c2nc(NC(=O)c3cc(C(C)(C)C)nn3C)sc2C)cc1Cl,"inconclusive [inhibitor, partial curve]",,"inconclusive [cytotoxic, partial curve, poor fit]"
COc1ccc(CCNC(=O)CN2c3cccc4cccc(c34)S2(=O)=O)cc1OC,"inconclusive [inhibitor, partial curve]","inconclusive [rising, full curve, poor fit]",inactive
CCOC(=O)c1c(NC(=O)C[n+]2ccc(N(C)C)cc2)sc(C)c1C,inactive,inactive,inactive
Cc1ccc(N(C)C(=O)c2cc(S(=O)(=O)N3CCCCC3)c[nH]2)cc1,"inconclusive [inhibitor, partial curve]",inactive,inactive
